The antibiotic and cytotoxicity screens of Wong et al. (2023)
The other results are listed elsewhere or left out.

What was measured:
HSkMC = human skeletal muscle cells; assay: cytotoxicity call (relative viability < 0.9); conditions: 10 µM
HepG2 = assay: cytotoxicity call (relative viability < 0.9); conditions: 10 µM
S. aureus RN4220 = assay: growth inhibition call (relative growth <= 0.2); conditions: 50 µM

COCC#Cc1ccc2c(c1)O[C@@H](CN(C)C(=O)COC)[C@H](C)CN([C@@H](C)CO)S2(=O)=O
inactive: cytotoxicity call (HSkMC) | cytotoxicity call (HepG2) | growth inhibition call (S. aureus RN4220)

C=COCCCCO
inactive: cytotoxicity call (HSkMC) | cytotoxicity call (HepG2) | growth inhibition call (S. aureus RN4220)

C[C@@H]1CCCCO[C@@H](CN(C)C(=O)Cc2ccccc2)[C@@H](C)CN([C@@H](C)CO)C(=O)c2cc(NC(=O)c3ccccc3)ccc2O1
inactive: cytotoxicity call (HSkMC) | cytotoxicity call (HepG2) | growth inhibition call (S. aureus RN4220)

C[C@H]1CN([C@@H](C)CO)C(=O)Cc2cc(NC(=O)CCCCCC(=O)Nc3ccccc3N)ccc2O[C@H]1CN(C)Cc1ccccc1
inactive: cytotoxicity call (HSkMC) | cytotoxicity call (HepG2) | growth inhibition call (S. aureus RN4220)

Cc1noc(C)c1S(=O)(=O)Nc1ccc2c(c1)C(=O)N([C@H](C)CO)C[C@H](C)[C@H](CN(C)S(=O)(=O)c1cn(C)cn1)OCCCC[C@@H](C)O2
inactive: cytotoxicity call (HSkMC) | cytotoxicity call (HepG2) | growth inhibition call (S. aureus RN4220)

CC[C@@H](O)C#CCN1CCN(C)CC1
inactive: cytotoxicity call (HSkMC) | cytotoxicity call (HepG2) | growth inhibition call (S. aureus RN4220)

C[C@@H]1CN([C@H](C)CO)C(=O)c2cc(-c3ccc(C#N)cc3)cnc2O[C@H]1CN(C)C(=O)Nc1ccc(C(F)(F)F)cc1
inactive: cytotoxicity call (HSkMC) | cytotoxicity call (HepG2) | growth inhibition call (S. aureus RN4220)

C[C@H](CO)N1C[C@H](C)[C@H](CN(C)S(=O)(=O)c2cccs2)Oc2c(NC(=O)C3CCOCC3)cccc2C1=O
inactive: cytotoxicity call (HSkMC) | cytotoxicity call (HepG2) | growth inhibition call (S. aureus RN4220)

C[C@@H]1CN([C@H](C)CO)C(=O)c2c(c3ccccc3n2C)-c2ccccc2CO[C@H]1CN(C)S(C)(=O)=O
inactive: cytotoxicity call (HSkMC) | cytotoxicity call (HepG2) | growth inhibition call (S. aureus RN4220)

NCCCC[C@@H]1NC(=O)[C@H]2C[C@@H](C(=O)NCc3ccc(F)cc3)[C@@H](c3cccc(OCCO)c3)N2C1=O
inactive: cytotoxicity call (HSkMC) | cytotoxicity call (HepG2) | growth inhibition call (S. aureus RN4220)
